Consider five molecules from patent US20260207762A1 (ANAVEON, published 2026).

The target of experiment [1] is T1, IL-2R on NK cells and CD8 T cells of murine splenocytes (C57BL/6 mice) (mouse). Kind of experiment: cell-based or functional assay.
The target of experiment [2] is T1, IL-2R on NK cells and CD8 T cells of …. Kind of experiment: cell-based or functional assay. The source holds these as a separate data set.

B1: DXM339 (other)
heavy: EVQLVQSGAEVKKPGESLKISCKGSGYSFTNFYIHWVRQAPGQRLEWMGSIYPNYGDTAYNQKFKDRFVFSLDTSVSTAYLQISSLKAEDTAVYYCARGYSYAMDYWGQGTTVTVSSASTKGPSVFPLAPSSKSTSGGTAALGCLVKDYFPEPVTVSWNSGALTSGVHTFPAVLQSSGLYSLSSVVTVPSSSLGTQTYICNVNHKPSNTKVDKRV[not shown - human IgG1 Fc with changes]
light: DIQMTQSPSSVSASVGDRVTITCSASQGISGGGNFHLRPRDLISNINVIVLELKGSETTFMCEYADETATIVEFLNRWITFSQSIISTLTPTSSSTKKTQLQLEHLLLDLQMILNGINNYKNPKLTRMLTFKFYMPKKATELKHLQCLEEELKPLEEVLNLAQSKGGGDLNWYQQKPGKAPKLLIYHTSSLHSGVPSRFSGSGSGTDFTLTISSLQPEDFATYYCQYYSKDLLTFGGGTKLEIKRTVAAPSVFIFPPSDEQLKSGTASVVCLLNNFYPREAKVQWKVDNALQSGNSQESVTEQDSKDSTYSLSSTLTLSKADYEKHKVYACEVTHQGLSSPVTKSFNRGEC
Consider B1, for which, in experiment [1], the “EC50 CD8 cells (nM), pSTAT5+ cells in mouse splenocytes” value (shortened to “EC50 CD8 cells (nM), pSTAT5+ cells”) was determined as 18.6 nM and the “EC50 NK cells (nM), pSTAT5+ cells in mouse splenocytes” value (from here on “EC50 NK cells (nM), pSTAT5+ cells”) stood at 1.3 nM.

B2: GLK754 (other)
heavy: EVQLVQSGAEVKKPGESLKISCKGSGYSFTNFYIHWVRQAPGQRLEWMGSIYPNYGDTAYNQKFKDRFVFSLDTSVSTAYLQISSLKAEDTAVYYCARGYSYAMDYWGQGTTVTVSSASTKGPSVFPLAPSSKSTSGGTAALGCLVKDYFPEPVTVSWNSGALTSGVHTFPAVLQSSGLYSLSSVVTVPSSSLGTQTYICNVNHKPSNTKVDKRV[not shown - human IgG1 Fc with changes]
light: DIQMTQSPSSVSASVGDRVTITCSASQGISGGGGGSGGGGSGGGNFHLRPRDLISNINVIVLELKGSETTFMCEYADETATIVEFLNRWITFSQSIISTLTPTSSSTKKTQLQLEHLLLDLQMILNGINNYKNPKLTRMLTFKFYMPKKATELKHLQCLEEELKPLEEVLNLAQSKGGGGSGGGGSGGGGDLNWYQQKPGKAPKLLIYHTSSLHSGVPSRFSGSGSGTDFTLTISSLQPEDFATYYCQYYSKDLLTFGGGTKLEIKRTVAAPSVFIFPPSDEQLKSGTASVVCLLNNFYPREAKVQWKVDNALQSGNSQESVTEQDSKDSTYSLSSTLTLSKADYEKHKVYACEVTHQGLSSPVTKSFNRGEC
For B2, in experiment [1], the “EC50 CD8 cells (nM), pSTAT5+ cells” value worked out at 70.5 nM and the “EC50 NK cells (nM), pSTAT5+ cells” value amounted to 2.5 nM.

B3: LQM346 (other)
heavy: EVQLVQSGAEVKKPGESLKISCKGSGYSFTNFYIHWVRQAPGQRLEWMGSIYPNYGDTAYNQKFKDRFVFSLDTSVSTAYLQISSLKAEDTAVYYCARGYSYAMDYWGQGTTVTVSSASTKGPSVFPLAPSSKSTSGGTAALGCLVKDYFPEPVTVSWNSGALTSGVHTFPAVLQSSGLYSLSSVVTVPSSSLGTQTYICNVNHKPSNTKVDKRV[not shown - human IgG1 Fc with changes]
light: DIQMTQSPSSVSASVGDRVTITCSASQGISGGGGGSGNFHLRPRDLISNINVIVLELKGSETTFMCEYADETATIVEFLNRWITFSQSIISTLTPTSSSTKKTQLQLEHLLLDLQMILNGINNYKNPKLTRMLTFKFYMPKKATELKHLQCLEEELKPLEEVLNLAQSKGGGGSGGDLNWYQQKPGKAPKLLIYHTSSLHSGVPSRFSGSGSGTDFTLTISSLQPEDFATYYCQYYSKDLLTFGGGTKLEIKRTVAAPSVFIFPPSDEQLKSGTASVVCLLNNFYPREAKVQWKVDNALQSGNSQESVTEQDSKDSTYSLSSTLTLSKADYEKHKVYACEVTHQGLSSPVTKSFNRGEC
On to B3, for which, in experiment [1], the “EC50 CD8 cells (nM), pSTAT5+ cells” value was determined as 25.4 nM and the “EC50 NK cells (nM), pSTAT5+ cells” value turned out to be 1.8 nM.

B4: FUE433 (other)
heavy: EVQLVQSGAEVKKPGESLKISCKGSGYSFTNFYIHWVRQAPGQRLEWMGSIYPNYGDTAYNQKFKDRFVFSLDTSVSTAYLQISSLKAEDTAVYYCARGYSYAMDYWGQGTTVTVSSASTKGPSVFPLAPSSKSTSGGTAALGCLVKDYFPEPVTVSWNSGALTSGVHTFPAVLQSSGLYSLSSVVTVPSSSLGTQTYICNVNHKPSNTKVDKRV[not shown - human IgG1 Fc with changes]
light: DIQMTQSPSSVSASVGDRVTITCSASQGISGGGGNFHLRPRDLISNINVIVLELKGSETTFMCEYADETATIVEFLNRWITFSQSIISTLTPTSSSTKKTQLQLEHLLLDLQMILNGINNYKNPKLTRMLTFKFYMPKKATELKHLQCLEEELKPLEEVLNLAQSKGGGGDLNWYQQKPGKAPKLLIYHTSSLHSGVPSRFSGSGSGTDFTLTISSLQPEDFATYYCQYYSKDLLTFGGGTKLEIKRTVAAPSVFIFPPSDEQLKSGTASVVCLLNNFYPREAKVQWKVDNALQSGNSQESVTEQDSKDSTYSLSSTLTLSKADYEKHKVYACEVTHQGLSSPVTKSFNRGEC
For B4, in experiment [1], the “EC50 CD8 cells (nM), pSTAT5+ cells” value came to 15.7 nM and the “EC50 NK cells (nM), pSTAT5+ cells” value worked out at 1.2 nM.

B5: Proleukin (aldesleukin) (ligand)
chain: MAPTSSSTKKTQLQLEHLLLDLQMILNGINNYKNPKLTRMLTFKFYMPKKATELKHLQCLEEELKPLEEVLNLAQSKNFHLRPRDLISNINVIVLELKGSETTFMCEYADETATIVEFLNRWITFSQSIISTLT
For the molecule B5, in experiment [2], the “EC50 pSTAT5 on CD8 cells (nM), mouse splenocytes” value stood at 11.9 nM and the “EC50 pSTAT5 on NK cells (nM), mouse splenocytes” value came to 2.51 nM. Also, the “EC50 CD8 cells (nM), pSTAT5+ cells” value in experiment [1] worked out at 4.1 nM.
